Test results taken from US20210070829A1 (ZHEJIANG DOER BIOLOGICS, published 2021).

B1: C563 L14F8L9M3 (Fc fusion)
chain: HSQGTFTSDYSSYLDEEAAQDFIEWLKNTGPSSGAPPPSGGGGAGGGGAGGGGAS[human IgG4 Fc with S228P N297A (EU numbers) omitted here]GGGGSGGGGSGGGGSDSSPLLQFGGQVRQRYLYTDDAQQTEAHLEIREDGTVGGAADQSPESLLQLKALKPGVIQILGVKTSRFLCQRPDGALYGSLHFDPEACSFRELLLEDGYNVYQSEAHGLPLHCPGNKSPHRDPAPRGPCRFLPLPGLPPALPEPPGILAPQPPDVGSSDPLAMVGPSQGRSPSYAS
B2: C549 L12F4L9M4 (Fc fusion)
chain: HSQGTFTSDVSKYLESRAAQDFVQWMNGGPSSGAPPPSGGGGAGGGGAGGGGAA[human IgG1 Fc with changes omitted here]GGGSGGGGSGGGGSHPIPDSSPLLQFGGQVRQRYLYTDDAQQTEAHLEIREDGTVGGAADQSPESLLQLKALKPGVIQILGVKTSRFLCQRPDGALYGSLHFDPEACSFRERLLEDGYNVYQSEAHGLPLHCPGNKSPHRDPAPRGPCRFLPLPGLPPALPEPPGILAPQPPDVGSSDPLAMVGGSQGRSPSYES
B3: C555 L10F6L12M1 (Fc fusion)
chain: HSQGTFTSDLSKYLEEQAAQDFVQWMNGGPSSGAPPPSGGGGAGGGGAGGGGA[human IgG4 Fc with S228P (EU numbers) omitted here]GGGGAGGGGAGGGGAAHPIPDSSPLLQFGGQVRQRYLYTDDAQQTEAHLEIREDGTVGGAADQSPESLLQLKALKPGVIQILGVKTSRFLCQRPDGALYGSLHFDPEACSFRERLLEDGYNVYQSEAHGLPLHLPGNKSPHRDPAPRGPARFLPLPGLPPALPEPPGILAPQPPDVGSSDPLSMVGGSQGRSPSYES
B4: C487 L13F7L13M4 (Fc fusion)
chain: HSQGTFTSDLSKYLEGQAAQDFVQWMNGGPSSGAPPPSGGGGSGGGGSGGGGSA[human IgG4 Fc with S228P N297A (EU numbers) omitted here]GGGGSGGGGSGGGGSAHPIPDSSPLLQFGGQVRQRYLYTDDAQQTEAHLEIREDGTVGGAADQSPESLLQLKALKPGVIQILGVKTSRFLCQRPDGALYGSLHFDPEACSFRERLLEDGYNVYQSEAHGLPLHCPGNKSPHRDPAPRGPCRFLPLPGLPPALPEPPGILAPQPPDVGSSDPLAMVGGSQGRSPSYES
B5: C488 L9F9L9M2 (Fc fusion)
chain: HSQGTFTSDLSKYLEGQAAQDFVQWMNTGPSSGAPPPSGGGGSGGGGSGGGGS[human IgG4 Fc with S228P F234A L235A (EU numbers) omitted here]GGGGSGGGGSGGGGSHPIPDSSPLLQFGGQVRQRYLYTDDAQQTEAHLEIREDGTVGGAADQSPESLLQLKALKPGVIQILGVKTSRFLCQRPDGALYGSLHFDPEACSFRERLLEDGYNVYQSEAHGLPLHCPGNKSPHRDPAPRGPCRFLPLPGLPPALPEPPGILAPQPPDVGSSDPLSMVGGSQGRSPSYES
B6: C508 L7F4L9M3 (Fc fusion)
chain: HSQGTFTSDYSKYLEEEAVRLFIQWLMNGGPSSGAPPPSGGSGGGSGGGGS[human IgG1 Fc with changes omitted here]GGGSGGGGSGGGGSDSSPLLQFGGQVRQRYLYTDDAQQTEAHLEIREDGTVGGAADQSPESLLQLKALKPGVIQILGVKTSRFLCQRPDGALYGSLHFDPEACSFRELLLEDGYNVYQSEAHGLPLHCPGNKSPHRDPAPRGPCRFLPLPGLPPALPEPPGILAPQPPDVGSSDPLAMVGPSQGRSPSYAS
B7: C240L12F8 (Fc fusion)
chain: HSQGTFTSDYSKYLDERAAQDFVQWLMNGGPSSGAPPPSGGGGAGGGGAGGGGAA[human IgG4 Fc with S228P N297A (EU numbers) omitted here]
B8: C368L10F4 (Fc fusion)
chain: HSQGTFTSDYSKYLDEQAAQDFVQWLMNTGPSSGAPPPSGGGGAGGGGAGGGGA[human IgG1 Fc with changes omitted here]
B9: C364L10F4 (Fc fusion)
chain: HSQGTFTSDYSKYLDGQAAQDFVQWLMNGGPSSGAPPPSGGGGAGGGGAGGGGA[human IgG1 Fc with changes omitted here]
B10: C352L13F4 (Fc fusion)
chain: HSQGTFTSDYSKYLDEQAAQDFVQWLMNGPSSGAPPPSGGGGSGGGGSGGGGSA[human IgG1 Fc with changes omitted here]
B11: C228L13F4 (SEQ ID NO. 120) (Fc fusion)
chain: HSQGTFTSDYSKYLDEERAQDFVQWLMNTGPSSGAPPPSGGGGSGGGGSGGGGSA[human IgG1 Fc with changes omitted here]
B12: C187L9F4 (Fc fusion)
chain: HSQGTFTSDYSKYLDSQRAQDFVQWLMNTGPSSGAPPPSGGGGSGGGGSGGGGS[human IgG1 Fc with changes omitted here]
B13: C618L12F4 (Fc fusion)
chain: HSQGTFTSDLSKQMDSRAAQDFIEWLKNGGPSSGAPPPSGGGGAGGGGAGGGGAA[human IgG1 Fc with changes omitted here]
B14: C623L9F3 (Fc fusion)
chain: HSQGTFTSDLSKQMDSREAQDFIEWLKNTGPSSGAPPPSGGGGSGGGGSGGGGS[human IgG1 Fc with changes omitted here]
B15: C228L13F4 (SEQ ID NO. 124) (Fc fusion)
chain: HSQGTFTSDYSKYLDEERAQDFVQWLMNTGPSSGAPPPSGGGGSGGGGSGGGGSA[human IgG1 Fc with changes omitted here]
B16: C508L7F4 (Fc fusion)
chain: HSQGTFTSDYSKYLEEEAVRLFIQWLMNGGPSSGAPPPSGGSGGGSGGGGS[human IgG1 Fc with changes omitted here]

These binders were tested against FGFR/β-Klotho receptor complex (assay: cell-based or functional assay).

Binder	FGF21 activity EC50 (luciferase reporter) [nM]
B1	0.77
B2	0.8
B3	0.6
B4	0.89
B5	0.73
B6	0.67

The binders below were run against T1, human GLP-1 receptor (human, UniProt P43220) (assay: cell-based or functional assay).

Binder	GLP-1R agonist activity EC50 (luciferase reporter) [nM]
B1	1.53
B2	1.92
B3	1.37
B4	1.33
B5	1.71
B6	5.45

These binders were tested against Glucagon receptor (assay: cell-based or functional assay).

Binder	GCGR agonist activity EC50 (luciferase reporter) [nM]
B1	1.25
B2	1.44
B3	1.22
B4	1.47
B5	1.34
B6	3.38

Molecular target: T1, human GLP-1 receptor
Assay: cell-based or functional assay
Remark: another data set of the same source

Binder	GLP-1R agonist activity EC50 (luciferase reporter) [nM]
B7	1.46
B8	1.72
B9	1.65
B10	1.75
B11	1.81
B12	1.53
B13	1.32
B14	1.26
B15	1.87
B16	1.77

Molecular target: Glucagon receptor
Assay: cell-based or functional assay
Remark: another data set of the same source

Binder	GCGR agonist activity EC50 (luciferase reporter) [nM]
B7	1.33
B8	1.42
B9	1.48
B10	1.23
B11	1.52
B12	1.2
B13	1.27
B14	1.17
B15	1.51
B16	1.45
